Structures can show the parent of a compound that is named as a salt. ± gives the standard deviation of the averaged measurements. Whole data set: some 2,000 compounds, median “cell viability relative to DMSO control (compound alone)” near 0.98, cut for the lowest 2% near 0.23. The list shows a part of the results.
What follows are compounds tested on PDC-DUC18828 (assay: cell viability relative to DMSO control (compound alone) (fraction); PDC-DUC18828 is a patient-derived cholangiocarcinoma cell line; higher = less growth inhibition). Conditions: 1 µM; 72 h.
Description: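 Selleck Bioactive library screen in the patient-derived FGFR2-G3BP2 fusion-positive ICC cell line PDC-DUC18828 (500 cells/well). Each compound was tested at 1 uM alone, in triplicate, for 72 h. Viability was read by CellTiter-Glo and normalised to plate DMSO controls.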

Point of comparison: `Cc1cc(NC(=O)c2cccc(NC(=O)/C=C/CN(C)C)c2)ccc1Nc1nccc(-c2cccnc2)n1`, cell viability 0.973 ± 0.042. Against it:
- CNC(=C[N+](=O)[O-])NCCSCc1csc(CN(C)C)n1 [Nizatidine] — within error, 1.02 ± 0.027
- CCNC(=O)c1noc(-c2cc(Cl)c(O)cc2O)c1-c1ccc(OC)cc1 — lower, 0.289 ± 0.039
- CCOC(=O)c1ccc(N2NC(=O)C(=Cc3ccc([N+](=O)[O-])o3)C2=O)cc1 — within error, 1.01 ± 0.055
- CCn1cc(C(=O)O)c(=O)c2cc(F)c(N3CCN(C)CC3)cc21 [Pefloxacin Mesylate] — within error, 0.955 ± 0.053
- CCn1cc(C(=O)O)c(=O)c2cc(F)c(N3CCN(C)CC3)cc21 [Pefloxacin Mesylate Dihydrate] — within error, 0.996 ± 0.053
- C[C@@H]1CN(c2c(F)c(N)c3c(=O)c(C(=O)O)cn(C4CC4)c3c2F)C[C@H](C)N1 [Sparfloxacin] — within error, 1.02 ± 0.057
- O=C(N/N=C/c1ccc([N+](=O)[O-])o1)c1ccc(O)cc1 [Nifuroxazide] — within error, 0.884 ± 0.047
- Cc1cccc(Nc2cc(Cl)nc(SCC(=O)O)n2)c1C — higher, 1.05 ± 0.021
- Cc1cn([C@@H]2C[C@@H](O)[C@H](CO)O2)c(=O)[nH]c1=O [Telbivudine] — within error, 0.98 ± 0.026
- CCc1cc(C(N)=S)ccn1 [Ethionamide] — within error, 1 ± 0.035
- Cn1cc(C2=C(c3ccc(Cl)cc3Cl)C(=O)NC2=O)c2ccccc21 — higher, 1.11 ± 0.038
- OCc1ccc(O[C@@H]2O[C@H](CO)[C@@H](O)[C@H](O)[C@H]2O)cc1 [Gastrodin] — within error, 1.01 ± 0.062
- O=C(NC(NC(=S)Nc1ccc(F)c([N+](=O)[O-])c1)C(Cl)(Cl)Cl)C(c1ccccc1)c1ccccc1 (stereo unspecified) — within error, 0.938 ± 0.037
- C[C@H]1[C@H](NC(=O)/C(=N\OC(C)(C)C(=O)O)c2csc(N)n2)C(=O)N1S(=O)(=O)O [Aztreonam] — within error, 0.987 ± 0.045
- COC(=O)c1ccc2c(c1)[nH]c1ncnc(NCCCN3CCCCC3)c12 — within error, 0.9436 ± 0.0057
- OC[C@H]1O[C@@H](OCCc2ccc(O)cc2)[C@H](O)[C@@H](O)[C@@H]1O [Salidroside] — within error, 0.983 ± 0.047
- CCc1c2c(nc3ccc(OC(=O)N4CCC(N5CCCCC5)CC4)cc13)-c1cc3c(c(=O)n1C2)COC(=O)[C@]3(O)CC [Irinotecan HCl Trihydrate] — lower, 0.501 ± 0.014
- CCc1c2c(nc3ccc(OC(=O)N4CCC(N5CCCCC5)CC4)cc13)-c1cc3c(c(=O)n1C2)COC(=O)[C@]3(O)CC [Irinotecan] — lower, 0.306 ± 0.011
- C=C1/C(=C\C=C2/CCC[C@]3(C)[C@@H]([C@H](C)CCCC(C)(C)O)CC[C@@H]23)C[C@@H](O)C[C@@H]1O [Calcitriol] — within error, 0.968 ± 0.039
- CCC[C@H](NC(=O)/C(C#N)=C/c1cccc(Br)n1)c1ccccc1 [Degrasyn (WP1130)] — lower, 0.892 ± 0.032

— the supplement of paper PMC9588766
